Measurements published in patent US20060039927A1 (US Dept. of Health and Human Services, published 2006).

Biological target: T1, sgp130-Fc (R&D Systems), a fusion protein of sgp130 and human IgG Fc (human, UniProt P40189 23-619)
T1 construct: extracellular domain; Immobilized on the CM5 chip in the BIAcore work; the results text calls it sgp130; also called immobilized sgp130; not shown: human IgG Fc
T1 sequence (looked up): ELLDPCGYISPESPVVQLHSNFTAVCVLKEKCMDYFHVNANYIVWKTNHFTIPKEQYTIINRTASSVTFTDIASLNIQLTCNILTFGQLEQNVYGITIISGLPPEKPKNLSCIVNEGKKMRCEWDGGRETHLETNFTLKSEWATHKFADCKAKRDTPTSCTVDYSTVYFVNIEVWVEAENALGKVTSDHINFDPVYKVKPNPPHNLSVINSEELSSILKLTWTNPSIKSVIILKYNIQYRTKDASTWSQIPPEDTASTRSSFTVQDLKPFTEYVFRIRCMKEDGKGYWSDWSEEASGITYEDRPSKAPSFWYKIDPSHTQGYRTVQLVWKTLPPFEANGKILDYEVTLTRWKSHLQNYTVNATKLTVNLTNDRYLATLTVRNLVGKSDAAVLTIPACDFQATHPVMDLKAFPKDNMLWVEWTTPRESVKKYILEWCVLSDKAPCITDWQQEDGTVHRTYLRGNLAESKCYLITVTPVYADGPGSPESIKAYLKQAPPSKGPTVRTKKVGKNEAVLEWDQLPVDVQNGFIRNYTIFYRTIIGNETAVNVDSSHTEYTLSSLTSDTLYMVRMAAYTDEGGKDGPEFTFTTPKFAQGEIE
Experiment: surface plasmon resonance (BIAcore 2000), sgp130 immobilized at 18.2 ng/mm2, human IL-6 50 µg/mL plus sIL-6Rα 20 µg/mL

B1: human IL-6 preincubated with sIL-6Rα (human IL-6/sIL-6Rα complex) (other)
chain 1: [about 200 residues not shown]
chain 2: LAPRRCPAQEVARGVLTSLPGDSVTLTCPGVEPEDNATVHWVLRKPAAGSHPSRWAGMGRRLLLRSVQLHDSGNYSCYRAGRPAGTVHLLVDVPPEEPQLSCFRKSPLSNVVCEWGPRSTPSLTTKAVLLVRKFQNSPAEDFQEPCQYSQESQKFSCQLAVPEGDSSFYIVSMCVASSVGSKFSKTQTFQGCGILQPDPPANITVTAVARNPRWLSVTWQDPHSWNSSFYRLRFELRYRAERSKTFTTWMVKDLQHHCVIHDAWSGLRHVVQLRAQEEFGQGEWSEWSPEAMGTPWTESRSPPAENEVSTPMQALTTNKDDDNILFRDSANATSLPVQDSSSVPLP
notes: also called human IL-6 plus sIL-6Rα
- binding result: binds
